# The other results are listed elsewhere or left out. Values were computed here from the reads of four pooled replicates and scatter widely.
# Target: T1, Pho4 (S. cerevisiae) (UniProt P07270)
# T1 sequence: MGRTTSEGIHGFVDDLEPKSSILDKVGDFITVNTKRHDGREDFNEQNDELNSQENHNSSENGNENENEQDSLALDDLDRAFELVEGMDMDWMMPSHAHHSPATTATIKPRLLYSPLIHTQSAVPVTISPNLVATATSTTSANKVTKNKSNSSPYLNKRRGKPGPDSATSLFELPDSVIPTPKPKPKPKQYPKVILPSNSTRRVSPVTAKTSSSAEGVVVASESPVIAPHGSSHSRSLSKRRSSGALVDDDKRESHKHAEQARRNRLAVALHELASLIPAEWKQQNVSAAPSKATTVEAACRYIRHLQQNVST
# Experiment: relative binding free energy (BET-seq); higher = weaker binding
# Settings: reference: library average
row,Sequence,relative binding free energy
1,TTTGTCACGTGTGATC,0.24 kcal/mol
2,GGGGTCACGTGTGCAT,0.14 kcal/mol
3,CAAAACACGTGGGGTG,-0.18 kcal/mol
4,CGAGTCACGTGGTACG,0.2 kcal/mol
5,GGTCGCACGTGAGTTA,0.15 kcal/mol
6,ATAATCACGTGTGAGT,0.18 kcal/mol
7,TCTTACACGTGGTGTG,-0.11 kcal/mol
8,TGTTGCACGTGCTATA,-0.19 kcal/mol
9,TTTGACACGTGTATCA,0.06 kcal/mol
10,TGATTCACGTGTGCAT,0.12 kcal/mol
11,CTAGGCACGTGTAGTA,-0.16 kcal/mol
12,TGTAACACGTGGGCGG,-0.15 kcal/mol
13,TTGAGCACGTGTAGCT,-0.12 kcal/mol
14,TAGTTCACGTGTTGGG,0.29 kcal/mol
15,AGTATCACGTGAGAGG,0.27 kcal/mol
16,TTGGGCACGTGAATTG,0.3 kcal/mol
17,ATGGGCACGTGAGGAC,0.13 kcal/mol
18,GTTTTCACGTGAAAGC,0.3 kcal/mol
19,GAGGTCACGTGTGTGT,0.18 kcal/mol
20,TTCTTCACGTGATGTA,0.37 kcal/mol
21,TAAAGCACGTGTGGCT,0.05 kcal/mol
22,TTTTCCACGTGGATTT,0.17 kcal/mol
23,GATTTCACGTGTATTT,0.26 kcal/mol

row,Sequence,relative binding free energy
1,TTCGGCACGTGCTGGT,-0.1 kcal/mol
2,AAGTACACGTGAGGGT,0.07 kcal/mol
3,TGACTCACGTGTGGAG,0.23 kcal/mol
4,TCATGCACGTGGGTTT,-0.16 kcal/mol
5,TTTAGCACGTGAGTTC,0.18 kcal/mol
6,GGGGTCACGTGCCTGT,-0.14 kcal/mol
7,AGGGACACGTGTGGTA,0.04 kcal/mol
8,AATTGCACGTGGGTCG,-0.13 kcal/mol
9,GAAGACACGTGGGGAG,-0.04 kcal/mol
10,TTAGACACGTGGATGA,-0.11 kcal/mol
11,GGTTTCACGTGCTATA,0.11 kcal/mol
12,GCGTACACGTGGTTTG,0.15 kcal/mol
13,ATTTTCACGTGAATGA,0.3 kcal/mol
14,TATAGCACGTGCTAGT,-0.06 kcal/mol
15,CGGGGCACGTGTTGTA,-0.08 kcal/mol
16,CGTACCACGTGAGGGG,0.15 kcal/mol
17,GGAGGCACGTGAAGTT,0.07 kcal/mol
18,ATTCACACGTGGTGTC,0.02 kcal/mol
19,AATTTCACGTGAATGA,0.38 kcal/mol
20,TATTGCACGTGTTGGT,0.09 kcal/mol
21,GTTGTCACGTGGATAA,0.09 kcal/mol
22,TAGAGCACGTGACAGG,0.08 kcal/mol
23,TTGGCCACGTGTGGGA,0.01 kcal/mol

row,Sequence,relative binding free energy
1,TTTAGCACGTGTCGTA,-0.02 kcal/mol
2,TAAACCACGTGGGTGT,-0.07 kcal/mol
3,TAGGACACGTGTGGTG,0.07 kcal/mol
4,TGGTACACGTGCAGGG,-0.12 kcal/mol
5,TTGTTCACGTGTATGG,0.29 kcal/mol
6,TGAGTCACGTGTAGGT,0.04 kcal/mol
7,GTTTTCACGTGCGATT,0.36 kcal/mol
8,GGAGACACGTGCGAGG,-0.05 kcal/mol
9,AGCAGCACGTGGTATT,-0.05 kcal/mol
10,GGAAGCACGTGTCTGT,0.03 kcal/mol
11,AAGGTCACGTGTATTG,0.08 kcal/mol
12,GAAGGCACGTGGAGTG,-0.12 kcal/mol
13,GGTTGCACGTGTGCGT,0.1 kcal/mol
14,TGGTACACGTGTGTAT,0.12 kcal/mol
15,CGGTCCACGTGGTAGG,-0.1 kcal/mol
16,TGTTTCACGTGTTCGT,0.33 kcal/mol
17,GTTACCACGTGTTTAG,0.06 kcal/mol
18,ATTTGCACGTGGTTGA,-0.07 kcal/mol
19,TATAGCACGTGTTGGG,-0.06 kcal/mol
20,TTGATCACGTGATTAG,0.23 kcal/mol
21,GGCGTCACGTGGGGGA,-0.1 kcal/mol
22,AGGTACACGTGTTATT,-0.03 kcal/mol
23,TGGGGCACGTGGAAAG,0.01 kcal/mol

row,Sequence,relative binding free energy
1,GCTTGCACGTGTGCGG,-0.02 kcal/mol
2,CATATCACGTGTTTGT,0.17 kcal/mol
3,GTTTACACGTGGAAGC,0.35 kcal/mol
4,GTGTCCACGTGGCGGT,-0.08 kcal/mol
5,AGTTGCACGTGGAGGT,-0.07 kcal/mol
6,GGTATCACGTGGAATT,0.24 kcal/mol
7,GGGCGCACGTGGGGCA,-0.28 kcal/mol
8,CTAGGCACGTGTGTTA,-0.2 kcal/mol
9,TGGCCCACGTGGGGTA,-0.27 kcal/mol
10,ATGGACACGTGGCGGT,0.07 kcal/mol
11,GGGGGCACGTGCTAGA,-0.26 kcal/mol
12,ATCCTCACGTGGGGTG,0.09 kcal/mol
13,GCAGGCACGTGTGTAT,0.05 kcal/mol
14,AGGGGCACGTGTTAGA,-0.07 kcal/mol
15,CGGGACACGTGGGGGT,-0.13 kcal/mol
16,ATGTACACGTGTGGGG,0.1 kcal/mol
17,GTGGTCACGTGTCTCG,0.15 kcal/mol
18,ATGCTCACGTGTTCTG,0.22 kcal/mol
19,GTGATCACGTGGATTG,0.04 kcal/mol
20,TCAATCACGTGGGTGG,0.11 kcal/mol
21,GCGTTCACGTGGGTCG,0.13 kcal/mol
22,GTTTACACGTGGGGCA,0.03 kcal/mol
23,GTTGGCACGTGTGGAA,-0.03 kcal/mol

row,Sequence,relative binding free energy
1,GAATTCACGTGTTTCT,0.44 kcal/mol
2,GTACTCACGTGTTTGG,0.32 kcal/mol
3,GTTGGCACGTGCGCAA,-0.04 kcal/mol
4,GGTGTCACGTGGCTTG,0.13 kcal/mol
5,GGGGACACGTGTTTGG,0.12 kcal/mol
6,CTGTACACGTGGCAGG,0.14 kcal/mol
7,TGCGACACGTGTTGAG,0.12 kcal/mol
8,AGGCTCACGTGGGGAA,0.09 kcal/mol
9,GTTAGCACGTGTAAGG,0.17 kcal/mol
10,GCGTTCACGTGTTGCG,0.33 kcal/mol
11,ACGTGCACGTGTTGTT,-0.06 kcal/mol
12,GTTGGCACGTGCCTTG,-0.02 kcal/mol
13,GAATTCACGTGGGAGT,0.33 kcal/mol
14,TTTTTCACGTGTACCT,0.27 kcal/mol
15,GATCACACGTGGTGGG,0.04 kcal/mol
16,GGTCACACGTGGGGTA,-0.01 kcal/mol
17,TTGTGCACGTGTGGGA,0.02 kcal/mol
18,GTTCGCACGTGGATTT,0.06 kcal/mol
19,GAAAACACGTGGGTTG,-0.17 kcal/mol
20,GCGCGCACGTGGGTTA,-0.08 kcal/mol
21,GTTGTCACGTGTAGTA,0.21 kcal/mol
22,TGAGGCACGTGGAAGT,-0.11 kcal/mol
23,TAGGTCACGTGCCGGG,0.06 kcal/mol

# Reference: the BET-seq Pho4 binding data (Le et al. 2018)
